Measured values reported in paper PMC9959916.
No constants are given. Whether binding was seen depends on the method and setting. In cells and extracts the contact can be indirect. Some entries that bind do so weakly or less than the wild type. Where a sequence is shown, tags or fusion partners need not be part of it.

Sequences of proteins named here, by UniProt entry; tags and fusion partners are left off.
UniProt Q06609: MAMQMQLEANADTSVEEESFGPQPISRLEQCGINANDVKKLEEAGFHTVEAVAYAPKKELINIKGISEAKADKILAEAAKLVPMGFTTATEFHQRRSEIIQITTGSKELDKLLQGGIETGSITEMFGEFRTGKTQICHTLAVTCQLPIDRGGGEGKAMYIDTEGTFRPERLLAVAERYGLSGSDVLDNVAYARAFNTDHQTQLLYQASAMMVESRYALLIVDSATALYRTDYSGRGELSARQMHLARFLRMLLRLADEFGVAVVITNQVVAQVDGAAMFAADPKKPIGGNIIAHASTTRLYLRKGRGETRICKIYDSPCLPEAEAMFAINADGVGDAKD

Molecular target: endogenous RAD51 (HeLa cells) (human (endogenous in HeLa)) (UniProt Q06609)
Experiment: co-IP; lysates of HeLa cells stably expressing FLAG-HA-NLS-fused canine BRCA2 peptides; 3 μg anti-RAD51 at 4 °C overnight, Protein G Dynabeads; peptides detected with anti-FLAG

binding: binds
B1: FLAG-HA-NLS-fused cBRC1-HCR-BRC2 (canine BRCA2 993–1248 aa) (domain or fragment, UniProt Q8MKI9 993-1248)
chain: PISNHSFENGFKTASNKEIKLSENNIRKSKMLFKDIEEHYPTNLACLEIVNTSSLESQKKPSKSHALDPQSINIISGFVQNSTYVSDSESGHTAPPTLSLKQDFDSNRNLTPSQKAEITELSTILEESGSQFEFTQFRKPSHIIQKNPFEMPENQLTILNSTSKEWKDDDLHLTTNAPSISQVDSKKSEGIIGGKQKFACLSRTSCNRSASGYSTDKNEVEFRGFYSARGTKLNVGSEALQKAKKLFSDLENINEE
